The whole screen tested about 390,000 compounds, of which about 910 (0.23%) were called active. Another 5% or so got no clear call; they are omitted. Calls come from the whole dose curve; as a rule, active = well fitted inhibition curve with a large enough effect; inconclusive = small, poorly fitted or top-dose-only effect; inactive = no such curve, though single readings can be large or run the other way. Only a part is listed here, and it is no random draw.
Each compound was assayed against Ubiquitin carboxyl-terminal hydrolase 1 (Homo sapiens) (UniProt O94782) (assay: Inhibitors of USP1/UAF1: Primary Screen). Details: recombinant USP1/UAF1, Ub-Rhodamine cleavage fluorescence; activity change, negative = inhibition: at 57.1 µM (top of the series).
Method in brief: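 USP1/UAF1 complex (1 nM) preincubated 15 min at room temperature with compound, then Ub-Rho substrate (150 nM final) added. Kinetic fluorescence at 480/540 nm over 6 reads at 60 s intervals; 50 mM HEPES pH 7.8, 0.5 mM EDTA, 0.1 mg/ml BSA, 1 mM TCEP, 0.01% Tween-20.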
% is set by controls: 0 for no effect and ±100 for the full control effect; potency is the fitted concentration of half-maximal effect.
Note: nearly all actives have a fitted effect of over 60% in size.

Sequence of UniProt O94782 (O94782 whole entry, looked up): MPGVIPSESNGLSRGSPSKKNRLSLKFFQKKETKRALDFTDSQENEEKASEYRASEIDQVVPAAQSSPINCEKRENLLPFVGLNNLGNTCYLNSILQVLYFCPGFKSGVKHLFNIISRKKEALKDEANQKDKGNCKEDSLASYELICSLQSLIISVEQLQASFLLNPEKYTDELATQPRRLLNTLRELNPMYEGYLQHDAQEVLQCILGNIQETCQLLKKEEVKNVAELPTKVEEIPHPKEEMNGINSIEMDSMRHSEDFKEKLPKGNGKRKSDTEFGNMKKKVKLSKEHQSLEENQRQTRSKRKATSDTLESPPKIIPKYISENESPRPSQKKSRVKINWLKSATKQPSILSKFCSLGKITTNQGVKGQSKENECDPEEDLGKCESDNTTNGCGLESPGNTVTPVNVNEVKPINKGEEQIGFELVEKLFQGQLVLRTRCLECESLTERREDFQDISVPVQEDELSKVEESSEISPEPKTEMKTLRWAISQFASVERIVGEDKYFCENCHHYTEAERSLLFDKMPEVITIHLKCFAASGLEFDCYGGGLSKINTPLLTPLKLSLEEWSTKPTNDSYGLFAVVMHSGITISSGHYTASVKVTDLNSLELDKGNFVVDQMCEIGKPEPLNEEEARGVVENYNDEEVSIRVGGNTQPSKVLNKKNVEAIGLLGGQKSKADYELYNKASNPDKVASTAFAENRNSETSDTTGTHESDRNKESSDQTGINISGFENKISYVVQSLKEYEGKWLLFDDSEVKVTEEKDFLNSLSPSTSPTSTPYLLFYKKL

SMILES | activity change, negative = inhibition | Potency
CCOC(=O)N(C)C[C@H]1OCc2cnnn2CCCC(=O)N([C@@H](C)CO)C[C@@H]1C | inactive: -15.3% | 
COC(=O)c1cc2sccc2n1Cc1nc(-c2cccc(Cl)c2)oc1C | inactive: -24.4% | 
CCN1CCN(CC(O)COc2ccc(C)c(C)c2)CC1 (stereo not given) | inactive: -14.9% | 
Cc1nn(Cc2ccc(F)cc2)c(C)c1NC(=O)c1noc2c1CCc1ccccc1-2 | inactive: -25.5% | 
COc1cccc(CNC(=O)CN2C(=O)COc3ccc(S(=O)(=O)N4CCCCC4)cc32)c1 | inactive: -4.64% | 
Oc1[nH]c2ccccc2c1N=Nc1ccccc1F | inactive: 279% | 
CCCNC(=O)Cn1c(=O)/c(=C\c2ccc(-c3ccc([N+](=O)[O-])cc3)o2)s/c1=C\C(=O)C(C)(C)C | inactive: 122% | 
COc1ccc2c(C=Nc3c(C)n(C)n(-c4ccccc4)c3=O)c(O)n(Cc3ccco3)c(=O)c2c1 | inactive: 91% | 
O=C(C[C@H]1C/C=C\CC[C@H](Cc2ccc(F)cc2)C(=O)OC[C@H]2CCCN2C1=O)N[C@@H](CO)Cc1ccccc1 | inactive: -27.5% | 
C#Cc1ccc([C@H]2C=C(C(=O)NCc3ccccc3)O[C@@H](OCc3ccc(CO)cc3)C2)cc1 | inactive: -23.5% | 
O=C(NCc1ccc(OC(F)(F)F)cc1)c1cccc2c1C(=O)c1ccc(N3CCC(Cc4ccccc4)CC3)cc1S2(=O)=O | inactive: 390% | 
Cc1ccc(-c2c(C(=O)NCc3ccc(F)cc3)oc(=O)c3ccccc23)cc1 | inactive: -7.82% | 
O=C1c2ccccc2-c2cccc(NS(=O)(=O)c3ccc(C(F)(F)F)cc3)c21 |  | active: 28.2 µM
COC(C[C@H](O)C[C@@H](O)COCc1ccccc1)OC | inactive: -25% | 
CN(C)CCCC1(c2ccc(F)cc2)OCc2cc(C#N)ccc21 (stereo not given) | inactive: -14.7% | 
C=CCNC(=O)C12CCC(C)(C(=O)C1Br)C2(C)C (stereo not given) | inactive: -21% | 
COCCCNC(=O)C1CCC(CNS(=O)(=O)c2ccc(OC)cc2)CC1 (stereo not given) | inactive: -32.3% | 
CC(C)(C)[C@@H]1COC(=O)[C@H](Cc2ccc(F)cc2)CC/C=C\C[C@@H](CC(=O)N(CCO)Cc2ccccc2)C(=O)N1 | inactive: -27.3% | 
Cc1ccccc1Nc1c(-c2cccnc2)nc2cccc(C)n12 | inactive: -18.6% | 
CN(c1ccccc1)c1ccc(/C=C(\CCC(=O)O)c2nc3ccccc3s2)cc1[N+](=O)[O-] | inactive: -12.7% | 
Cc1ccc(-c2nc(-c3cc4cccc(OCc5cccc(F)c5)c4oc3=O)no2)cc1 | inactive: 30.1% | 
C[C@@H]1CN([C@H](C)CO)C(=O)CCCn2nncc2CO[C@H]1CN(C)C(=O)Nc1ccc2c(c1)OCO2 | inactive: -15.6% | 
N#C/C(=C/c1ccc(N2CCCCC2)o1)c1cccc(F)c1 |  | active: 17.8 µM
O=c1oc(-c2cccc(Cl)c2)nc2c1cnn2-c1ccccc1 | inactive: 25.3% | 
COc1ccc(NC(=O)[C@@H]2[C@@H]3C(=O)N(C4CCCCC4)C(=O)[C@@H]3C3c4ccccc4C=CN32)cc1 (stereo not given in full) |  | active: 31.6 µM
